The list shows a part of the results.
Tests used:
HSkMC = human skeletal muscle cells; assay: cytotoxicity call (relative viability < 0.9); conditions: 10 µM
HepG2 = assay: cytotoxicity call (relative viability < 0.9); conditions: 10 µM
S. aureus RN4220 = assay: growth inhibition call (relative growth <= 0.2); conditions: 50 µM

CCCNC(=O)N1C[C@]2(CCN(CC2)S(=O)(=O)c2cccc(c2)OC)c2c(n(c3cc(ccc23)OC)C)[C@@H]1CO
inactive: cytotoxicity call (HSkMC) | cytotoxicity call (HepG2) | growth inhibition call (S. aureus RN4220)

C[C@@H]1CCCCO[C@H](CN(C)C(=O)NC2CCCCC2)[C@H](C)CN([C@@H](C)CO)C(=O)c2cc(NC(=O)NC3CCCCC3)ccc2O1
inactive: cytotoxicity call (HSkMC) | cytotoxicity call (HepG2) | growth inhibition call (S. aureus RN4220)

C[C@H](CO)N1C[C@H](C)[C@H](CN(C)C(=O)Nc2ccccc2)Oc2c(NC(=O)C3CCOCC3)cccc2C1=O
inactive: cytotoxicity call (HSkMC) | cytotoxicity call (HepG2) | growth inhibition call (S. aureus RN4220)

CC(C)(C)c1cc2[nH]c(N)nc(=N)n2n1
inactive: cytotoxicity call (HSkMC) | cytotoxicity call (HepG2) | growth inhibition call (S. aureus RN4220)

C[C@H]1CN([C@@H](C)CO)C(=O)Cc2cc(NC(=O)NC3CCCCC3)ccc2O[C@@H]1CN(C)S(C)(=O)=O
inactive: cytotoxicity call (HSkMC) | cytotoxicity call (HepG2) | growth inhibition call (S. aureus RN4220)

C/C=C1\[C@@H](O[C@H]2O[C@@H](CO)[C@@H](O)[C@@H](O)[C@@H]2O)OC=C(C(=O)OC)[C@H]1CC(=O)OC[C@H]1[C@H](C)[C@H](OC(=O)C[C@@H]2C(C(=O)OC)=CO[C@H](O[C@H]3O[C@@H](CO)[C@@H](O)[C@@H](O)[C@@H]3O)/C2=C\C)C[C@@H]1[C@H](CO)COC(=O)C[C@@H]1C(C(=O)OC)=CO[C@@H](O[C@H]2O[C@@H](CO)[C@@H](O)[C@@H](O)[C@@H]2O)/C1=C\C
inactive: cytotoxicity call (HSkMC) | cytotoxicity call (HepG2) | growth inhibition call (S. aureus RN4220)

CC(=O)N[C@H](CC(C)C)C(=O)O
inactive: cytotoxicity call (HSkMC) | cytotoxicity call (HepG2) | growth inhibition call (S. aureus RN4220)

C[C@@H]1CN([C@H](C)CO)C(=O)c2cc(NC(=O)Nc3ccc(F)cc3)ccc2O[C@@H](C)CCCCO[C@@H]1CN(C)Cc1ccc(Cl)c(Cl)c1
inactive: cytotoxicity call (HSkMC) | cytotoxicity call (HepG2) | growth inhibition call (S. aureus RN4220)
